Test results as given in PubChem BioAssay AID493208 (National Center for Advancing Translational Sciences (NCATS), 2011).
The campaign covered roughly 44,000 compounds. About 340 (0.77%) were called active. Another 5% or so got no clear call; they are omitted. The call rests on the fitted dose curve; in most records, active means well fitted inhibition curve with a large enough effect; inconclusive means small, poorly fitted or top-dose-only effect; inactive means flat fitted curve, though single readings scatter. This is one part of the list.

experiment: Acumen qHTS Assay for Inhibitors of the mTORC1 Signaling Pathway in MEF (Tsc2-/-, p53-/-) Cells: Sytravon; details: phospho-rpS6 immunofluorescence/PI, 24 h; series mostly up to 38.3 µM; activity change, negative = inhibition: at the top concentration; further: nearly all actives have a fitted effect of over 50% in size;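 on activity change, negative = inhibition: plate controls were DMSO for no effect and rapamycin for full effect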
In short: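 Readout is phospho-S6 Alexa 488 signal normalized to PI per well, reported as % active cells with thresholds set from rapamycin (7.5 nM) and DMSO controls. Cells: Tsc2-/-, p53-/- MEFs, 24 hrs compound at 37 C; PI cell number serves as viability.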
Potency means the concentration at half of the fitted maximal effect.

SMILES	Potency	activity change, negative = inhibition
Cc1cccc(N2CCN(c3ncnc4c3nc3n4CCCCC3)CC2C)c1 (configuration not stated)	active: 9.27 µM	–
COc1ccc(CCNc2nc3cc(OC)c(OC)cc3c3nc(-c4ccccc4)nn23)cc1OC	–	inactive: -8.28%
COC(=O)c1cc2occc2n1CC(=O)Nc1ccc(C)cc1Cl	–	inactive: -0.801%
COc1ccc(-c2nn(-c3ccc(C)cc3)c3c2cnc2ccc(C)cc23)cc1OC	–	inactive: -2.47%
Cc1ccc(C)c(-n2nnc(-c3nc(-c4ccccc4C)no3)c2C)c1	–	inactive: 5.23%
CCCN1CCN(CCCNC(=O)C(CC)n2nc(C)n3c(cc4occc43)c2=O)CC1 (configuration not stated)	–	inactive: -0.0351%
Cc1coc2cc3oc(=O)c(CCC(=O)NCc4ccccc4Cl)c(C)c3cc12	–	inactive: 1.08%
O=C(NCC(c1cccnc1)N1CCN(Cc2ccccc2)CC1)C(=O)Nc1cccc(Cl)c1 (configuration not stated)	–	inactive: 1.73%
O=C(O)c1cccc(-n2cnc3cccnc32)c1	–	inactive: -0.253%
CCC(C(=O)NC1CCCCC1)n1c(SCc2cccc(C)c2)nc2ccncc21 (configuration not stated)	–	inactive: -6.85%
Cn1c(C(=O)N2CCC(C(=O)NCCc3ccccc3)CC2)cc2sccc21	–	inactive: -1.71%
CCN(CC)CCNC(=O)c1cn(CC)c2ccc(S(=O)(=O)N(C)C3CCCCC3)cc2c1=O	–	inactive: -6.53%
COCc1c(Br)c(C)nc2sc3c(=O)n(-c4cccc(Br)c4)nnc3c12	–	inactive: 0.0534%
N#Cc1ccccc1CSc1nnc2ccc3ccccc3n12	–	inactive: -0.7%
CC(NC(=O)c1ccco1)c1nc(-c2ccccc2)no1 (configuration not stated)	–	inactive: 0.356%
Cc1cc(=O)n(CC(=O)NC(C)c2ccccc2)c2c1c(C)nn2-c1cccc(F)c1 (configuration not stated)	–	inactive: -5.77%
CCN1C(=O)c2ccccc2S(=O)(=O)c2ccc(C(=O)NCc3ccc(OC)cc3)cc21	–	inactive: 2.86%
CCc1ccccc1NC(=O)CSc1nnc(-c2ccccc2)c(-c2ccccc2)n1	–	inactive: 3.88%
O=C(CN(c1ccc(Cl)c(C(F)(F)F)c1)S(=O)(=O)c1ccccc1)Nc1cccnc1	–	inactive: 2%
COc1cc(OC)cc(-c2cc3nc(C)c(CCC(=O)Nc4ccccc4OC)c(C)n3n2)c1	–	inactive: -0.351%
COCCNC(=O)Cn1c(=O)c2cccn2c2ccc(F)cc21	–	inactive: 7.42%
CCc1nnc(NC(=O)c2nc(SC)ncc2Cl)s1	–	inactive: -0.436%
NC(=O)CSc1nc2c(oc3ccccc32)c(=O)n1Cc1ccccc1	–	inactive: 0.347%
CCSc1oc(-c2cccs2)nc1S(=O)(=O)c1ccc(Br)cc1	–	inactive: 2.26%
Cc1ccccc1C(=O)Nc1c(C(=O)Nc2cccc(F)c2)oc2ccccc12	–	inactive: 0.633%

SMILES	Potency	activity change, negative = inhibition
CCOC(=O)c1c(-c2ccccc2)oc2ccc(N(C(C)=O)S(=O)(=O)c3ccccc3)cc12	–	inactive: 5.87%
O=C(NCc1ccc2c(c1)OCO2)c1ccc2c(c1)N(Cc1ccccc1F)C(=O)c1ccccc1S2=O (configuration not stated)	–	inactive: 1.88%
O=S(=O)(NCC(c1ccco1)N1CCN(c2ccccc2)CC1)c1ccccc1 (configuration not stated)	–	inactive: -10.5%
Cc1cccn2c3c(c(=O)nc12)C(c1ccc(F)cc1)CC(=O)N3 (configuration not stated)	–	inactive: -16.4%
CCCN(C(=O)c1c(C)oc2ncnc(N3CCOCC3)c12)c1ccc(Cl)c(Cl)c1	–	inactive: 7.85%
CCOc1ccc(Cn2nnc(C(=O)Nc3ccc(Cl)cc3)c2N)cc1	–	inactive: 0.673%
CN(C1CCCCC1)S(=O)(=O)c1ccc2c(c1)c(=O)c(C(=O)NCc1ccc(F)cc1)cn2C	–	inactive: -8.09%
COc1ccccc1CNC(=O)C1CCN(C(=O)c2sccc2-n2cccc2)CC1	–	inactive: -19%
CCn1ccc2c(OCC(=O)Nc3ccc(C(C)=O)cc3)cccc2c1=O	–	inactive: 2.57%
COc1ccccc1CNC(=O)c1cc2c(-c3ccc(Cl)cc3)nn(C)c2s1	–	inactive: -3.66%
Cc1ccc(S(=O)(=O)Nc2ccc3[nH]c(=O)sc3c2)cc1C	–	inactive: 2.41%
O=C(c1ccc2c(c1)N(Cc1ccc(Cl)cc1)C(=O)c1ccccc1S2(=O)=O)N1CCC(Cc2ccccc2)CC1	–	inactive: -0.928%
O=C(c1ccc2c(c1)N(Cc1ccc(F)cc1)C(=O)c1ccccc1S2(=O)=O)N1CCCCCC1	–	inactive: 0.226%
CCOc1ccc(NC(=O)CSC2=Nc3ccccc3C3=NC(CC(=O)NCc4ccccc4OC)C(=O)N23)cc1 (configuration not stated)	–	inactive: -0.391%
Cc1ccc(N2CC(NC(=O)c3ccco3)CC2=O)cc1 (configuration not stated)	–	inactive: -3.72%
COc1cccc(-n2c(=O)c3cc(OC)c(OC)cc3n(CC(=O)Nc3ccccc3)c2=O)c1	–	inactive: -5.78%
O=C(Nc1cc2c(cc1C(=O)c1ccc(Br)cc1)OCCO2)c1ccc(Cl)cc1	–	inactive: 6.62%
Cc1oc(-c2ccccc2F)nc1CS(=O)(=O)CC(=O)N1CCN(c2ccc(Cl)cc2)CC1	–	inactive: -2.65%
Cc1ccc(C)c(S(=O)(=O)c2cn(C)c3cc(F)c(F)cc3c2=O)c1	–	inactive: 3.58%
CCc1cccc(NC(=O)c2c(N3CCCC3=O)c3cc(C)ccc3n2C)c1	–	inactive: -2.6%
COc1ccc(CCn2c(=O)c3ccccc3n(CC(=O)Nc3cccc(C)c3)c2=O)cc1OC	–	inactive: -2.79%
CC(=O)Nc1ccccc1-c1nc2ccccc2n(CC(=O)Nc2ccc(C)c(Cl)c2)c1=O	–	inactive: -20.3%
Cc1ccc(S(=O)Cc2ccc(C(=O)NC3CCCCCC3)o2)cc1 (configuration not stated)	–	inactive: -3.05%
Cc1[nH]c2ccc(C(=O)Nc3ccc(F)cc3)cc2c1C	–	inactive: -16.4%
Cc1ccccc1CN1C(=O)c2ccccc2S(=O)c2ccc(C(=O)NCc3ccco3)cc21 (configuration not stated)	–	inactive: 0.15%

SMILES	Potency	activity change, negative = inhibition
CCN(C(=O)CCS(=O)(=O)c1ccc2c(c1)oc(=O)n2C)c1ccc(OC)cc1	–	inactive: 6.54%
Cc1ccc(NC(=O)CSc2nc3c(c(=O)[nH]2)CCC3)cc1Cl	–	inactive: -14.6%
CCn1c(COc2cccc(C)c2)nc2ccccc21	–	inactive: -10.9%
O=S(=O)(c1ccc(Br)cc1)c1nc(-c2cccs2)oc1SCc1ccc(F)cc1	–	inactive: 4.49%
CCS(=O)(=O)N1CCC2(CC1)OC(=O)C(C)=C2C(=O)NCc1cccc(Cl)c1	–	inactive: -3.23%
COc1cc2c(cc1NC(=O)COc1ccc(Br)cc1C)oc1ccccc12	–	inactive: -3.5%
Cc1ccc(C)c(N2CCN(C(=O)C3CCN(C(=O)c4cc5sccc5n4C)CC3)CC2)c1	–	inactive: -1.66%
Cc1ccccc1NS(=O)(=O)c1ccc2c(c1)NC(=O)CCS2	–	inactive: 4.26%
CC(C)CCNC(=O)CCC(=O)N1Cc2ccccc2Oc2ncccc21	–	inactive: 2.52%
CCn1c(SCC(=O)Nc2ccccc2)nc2c([nH]c3ccccc32)c1=O	–	inactive: -6.01%
COc1ccccc1C(=O)Nc1c(C(=O)N2CCN(c3ccccc3F)CC2)oc2ccccc12	–	inactive: -4.92%
Cc1cc2c(cc1S(=O)(=O)NCc1ccccc1)OCC(=O)N2	–	inactive: -0.691%
Cc1ccc(NC(=O)c2ccc(COc3ccccc3Cl)o2)cc1	–	inactive: -7.44%
O=C(c1ccccc1)c1ccc2nc(N3CCN(c4ccccc4)CC3)c3nncn3c2c1	–	inactive: 1.21%
CN(C)c1cccc(C(=O)Nc2nc3ccc(S(=O)(=O)NC(C)(C)C)cc3s2)c1	–	inactive: -10.7%
Cc1ccc(CNC(=O)c2ccc3c(c2)NC(=O)C(CS(=O)(=O)Cc2ccc(F)cc2)N3)cc1 (configuration not stated)	–	inactive: 1.46%
CC(C)(C)c1ccc(C(=O)Nc2ccc(C(=O)OCc3cc(=O)n4ccsc4n3)cc2)cc1	–	inactive: 13.3%
CCC1CCCCN1CCCNC(=O)c1cn(CC)c2ccc(S(=O)(=O)N(C)C3CCCCC3)cc2c1=O (configuration not stated)	–	inactive: -8.02%
Cc1nc2ccc(S(=O)(=O)CCC(=O)Nc3ccc(C(C)C)cc3)cc2s1	–	inactive: -5.27%
COC(=O)c1sc(-c2ccccc2)cc1NC(=O)Nc1ccccc1Cl	–	inactive: -6.12%
Cc1cc(C)cc(Nc2nc3ccccc3nc2-n2nc(C)cc2C)c1	–	inactive: -3.79%
CCOC(=O)N1CCc2c(sc3c2c(=O)n(Cc2ccccc2)c(=O)n3CC(=O)Nc2cccc(C)c2)C1	–	inactive: 0.999%
COc1ccc(-c2cn3c(n2)sc2cc(C(=O)Nc4c(C)cccc4C)ccc23)cc1	–	inactive: -2.97%
Cc1ccc(CNC(=O)C2(c3cccs3)CCOCC2)cc1	–	inactive: -6.77%
CCCCC(=O)Nc1cc(-c2nc3cccnc3s2)ccc1C	–	inactive: 3.85%

SMILES	Potency	activity change, negative = inhibition
CCOc1ccc(NC(=O)CSc2ncnc3c2sc2ccccc23)cc1	–	inactive: 9.7%
CN(C)S(=O)(=O)c1ccc(C(=O)Nc2c(C(=O)Nc3ccc(F)cc3)oc3ccccc23)cc1	–	inactive: -2.99%
COc1ccc(C(=O)n2nc(-c3ccc(Cl)cc3)nc2NCc2ccco2)cc1	–	inactive: -15.3%
CCc1ccc(NC(=O)c2cc3c(COC(C)=O)cnc(C)c3oc2=O)cc1	–	inactive: 12.2%
Cc1cc(C)c2c(n1)SCC(=O)N2CC(=O)Nc1ccccc1C	–	inactive: -2.26%
CNC(=O)C1CCC(Cn2c(=O)c3sccc3n(CC(=O)NCc3ccc(C)cc3)c2=O)CC1 (configuration not stated)	–	inactive: 5.64%
COc1ccc(NC(=O)Cn2c(=O)oc3cc(Cl)ccc32)c(OC)c1	–	inactive: -3.08%
Cn1c(=O)oc2cc(S(=O)(=O)N3CCCC(C(=O)NCc4ccccc4Cl)C3)ccc21 (configuration not stated)	–	inactive: 0.626%
Cc1ccc(C)c(NC(=O)CCCn2c(C)c3cnn(-c4ccccc4)c(=O)c3c2C)c1	–	inactive: -6.42%
CCc1ccc(NC(=O)CSc2nc(C)c(C(=O)Nc3ccc(Cl)cc3)c(-c3ccc(OC)cc3)c2C#N)cc1	–	inactive: 2.11%
Cc1ccc(C2C(=O)N(C3CCCCCC3)CC(=O)N2C(C)C)cc1 (configuration not stated)	–	inactive: 5.64%
Cc1ccccc1C(=O)Nc1sc2c(c1C(=O)O)CCC(C(C)(C)C)C2 (configuration not stated)	–	inactive: 0.437%
O=C(CSc1nc2c([nH]c3ccccc32)c(=O)n1-c1ccc(F)cc1)NCC1CCCO1 (configuration not stated)	–	inactive: 1.39%
O=C(CSc1nc2c([nH]c3ccccc32)c(=O)n1-c1ccccc1)N1CCCc2ccccc21	–	inactive: -1.41%
Cc1cccc(NC(=O)c2cc(CN3CCOCC3)on2)c1C	–	inactive: -0.662%
Cc1cccc(S(=O)(=O)c2cn(C)c3cc(N4CCCCCC4)c(F)cc3c2=O)c1	–	inactive: 0.483%
O=C(CSc1ccccc1)N1CCc2c([nH]c3ccccc23)C1c1ccc(Cl)cc1 (configuration not stated)	–	inactive: -7.64%
COc1ccc(NC(=O)Cn2nc3c(cc2=O)CCCC3)cc1Cl	–	inactive: 2.79%
CCCCc1nn2c(=O)cc(CN(CC)c3ccccc3)nc2s1	–	inactive: 1.14%
CC1=C(c2ccc(F)cc2)S(=O)(=O)N=C1N1CCC(C(=O)NCCc2ccccc2)CC1	–	inactive: -7.47%
Cc1nc(N2CCCC2)ncc1C(=O)NCc1ccc(Cl)cc1	–	inactive: 5.86%
Cc1ccc(NC(=O)NCCOCCn2c(=O)oc3ccccc32)c(C)c1	–	inactive: 0.277%
